These results are taken from PubChem BioAssay AID1745853 (National Center for Advancing Translational Sciences (NCATS), 2022).

Holding throughout (assay): Primary Screen for Target Class Profiling of Small Molecule Inhibitors of Methyltransferases
Experiment [1] deals with Glycine N-methyltransferase (Homo sapiens) (UniProt Q14749). Particulars: purified enzyme, MTase-Glo SAH luminescence; measured here: GNMT inhibition; at 40 µM; stronger effect = lower value. The method, boiled down:
(§1)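 Each enzyme was reacted with SAM and its substrate, with compounds tested once at 40 uM; SAH formed was read by MTase-Glo luminescence.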

In experiment [2] the target is Guanidinoacetate N-methyltransferase (Homo sapiens) (UniProt Q14353). Particulars: purified enzyme, MTase-Glo SAH luminescence; measured here: GAMT inhibition; at 40 µM; stronger effect = lower value. The method, boiled down:
as §1

For experiment [3], the target named is Histamine N-methyltransferase (Homo sapiens) (UniProt P50135). Particulars: purified enzyme, MTase-Glo SAH luminescence; measured here: HNMT inhibition; at 40 µM; stronger effect = lower value. The method, boiled down:
as §1

For experiment [4], the target named is Nicotinamide N-methyltransferase (Homo sapiens) (UniProt P40261). The note with it: purified enzyme, MTase-Glo SAH luminescence; measured here: NNMT inhibition; at 40 µM; stronger effect = lower value. The method, boiled down: as §1
Experiment [5] has as its target Phenylethanolamine N-methyltransferase (Homo sapiens) (UniProt P11086). The note with it: purified enzyme, MTase-Glo SAH luminescence; measured here: PNMT inhibition; at 40 µM; stronger effect = lower value. The procedure, abridged: as §1

Structures are written as SMILES. This is one part of the list. Further columns of the screen follow, without active or inactive calls.
% is scaled to controls: 0 for no effect and ±100 for the full control effect.

Turning to `CCOc1ccc(CNC(=O)c2ncn3c2C(=O)N(CC)C(C)(C(=O)NC2CCCC2)C3)cc1` (stereo not drawn), the activity change, negative = inhibition is 0.841% in experiment [1]; 0% in experiment [2]; 9.03% in experiment [3]; 0.928% in experiment [4]; 6.33% in experiment [5].
`C=C1C(=O)O[C@@H]2[C@H]1CCC(C)=C1CCC(=O)O[C@]12C`: the activity change, negative = inhibition in experiment [1] is -7.29%; in experiment [2] it was -5.53%; in experiment [3], 2.5%; in experiment [4], -11.2%; in experiment [5] it was -2.63%.
As for `CCOc1ccc(-c2cc3n(n2)CC(C)(C(=O)NC2CCCCC2)N(c2ccccc2C)C3=O)cc1` (stereo not drawn), the activity change, negative = inhibition in experiment [1] was 2.14%; in experiment [2] it was 3.14%; in experiment [3] it was 2.56%; in experiment [4] it was 8.23%; in experiment [5], -0.118%.
For `CCCn1c(=O)c2ccc(C(=O)NC(C)CC)cc2n2c(=O)n(CC(=O)c3ccc(OCC)cc3)nc12` (stereo not drawn) the same measures were 9.66%, 4.63%, 11.6%, 5.04% and 6.85%.
For `CC(=O)Nc1c2n(c3ccc(F)cc13)CC(C)(C(=O)NCCC(C)C)N(Cc1ccccc1)C2=O` (stereo not drawn) the same measures were 3%, 0.844%, 8.51%, 14.4% and 4.42%.
For the compound `CCN1CCC2(CCC1=O)CN(Cc1nnc(-c3cccnc3)o1)CCN2C` (stereo not drawn), the activity change, negative = inhibition in experiment [1] was -1.17%; in experiment [2] it was -9.23%; in experiment [3], -4.94%; in experiment [4] it was -9.57%; in experiment [5], 9.46%.
In the same order, the values of `O=C(Nc1ccc(Cl)cc1)c1nc(Nc2ccccc2)c2ccccc2n1` are -7.3%, -1.74%, -10.2%, -15.6% and -12.3%.
For `CC12CCC3C1C(c1c(cc(O)c(C(=O)c4ccccc4)c1O)O2)C3(C)C` (stereo not drawn) the same measures were -45.3%, -25.9%, -61.4%, -37.7% and -32.6%.
For the compound `C[C@@H]1COC(Nc2ccc3ncnc(Nc4ccc(OCc5nccs5)c(Cl)c4)c3c2)=N1`, the activity change, negative = inhibition in experiment [1] was -13.3%; in experiment [2] it was 6.09%; in experiment [3] it was -47.1%; in experiment [4], -15.6%; in experiment [5] it was -13.2%.
In the same order, the values of `Cc1ccc(CN2C(=O)COC[C@H]2C(=O)N2CCN(c3cccc(Cl)c3)CC2)cc1` are -9.05%, -0.527%, -5.18%, -2.23% and -1.67%.
In the same order, the values of `CC1(C(=O)NC2CCCCCC2)Cc2ccccc2C(=O)N1Cc1cccs1` (stereo not drawn) are -0.937%, 2.83%, 7.75%, 2.23% and 1.51%.
For `O=C(C1CCCC1)N1CCCC(C(=O)N2CCC(c3nc4ccncc4[nH]3)C2)C1` (stereo not drawn), the activity change, negative = inhibition in experiment [1] is -7.63%; in experiment [2], -11.7%; in experiment [3], -4.89%; in experiment [4] it was -15.3%; in experiment [5], -7.51%.
In the same order, the values of `Cc1ccc(C)c(N2C(=O)c3cc4ccccc4n3CC2(C)C(=O)NCCC(C)C)c1` (stereo not drawn) are 4.89%, 2.32%, 5.04%, 4.03% and 4.37%.
On to `CC1CCN(S(=O)(=O)c2ccc3c(ccn3CC(=O)NCCc3ccccc3Cl)c2)CC1`, for which the activity change, negative = inhibition is -1.68% in experiment [1]; 0.005% in experiment [2]; -7.26% in experiment [3]; -7.84% in experiment [4]; -6.83% in experiment [5].
In the case of `O=C(Cn1nc2nc(Nc3ccc(F)cc3)ccn2c1=O)Nc1ccccc1F`, the activity change, negative = inhibition in experiment [1] is 2.16%; in experiment [2], 2.96%; in experiment [3] it was 8.87%; in experiment [4], -4.17%; in experiment [5], -1.39%.
In the same order, the values of `O=S(=O)(c1ccccc1)N1CCC(F)(c2nc(Cc3ccccc3)no2)CC1` are -9.24%, -11.7%, -3.07%, -12.5% and -10.8%.
For `CC1(C(=O)NC2CCCCCC2)Cn2c(cc3occc32)C(=O)N1Cc1ccccc1Br` (stereo not drawn) the same measures were -0.534%, 3.38%, 2.1%, -6.37% and -3.46%.
Consider `N#Cc1ccccc1-c1cc2c(ccn2Cc2ccncc2)c(N2CCOCC2)n1`, for which the activity change, negative = inhibition in experiment [1] was -68.7%; in experiment [2] it was -25.8%; in experiment [3], -16.4%; in experiment [4], -23.4%; in experiment [5], -62.1%.
For `CC(C)Oc1ccc(CN2C(=O)c3nc4ccccc4n3CC2(C)C(=O)NC2CCCCCC2)cc1` (stereo not drawn) the same measures were 4.08%, 1.17%, 10.2%, 5.87% and 2.66%.
As to `O=C(CCCCCCC(=O)Nc1ccc(C2OC(CSc3nc(-c4ccccc4)c(-c4ccccc4)o3)CC(c3ccc(CO)cc3)O2)cc1)NO` (stereo not drawn), the activity change, negative = inhibition is -28.4% in experiment [1]; -2.36% in experiment [2]; -32.9% in experiment [3]; -33.8% in experiment [4]; -17.4% in experiment [5].
For the compound `Cc1ccc(NS(=O)(=O)c2cc3c(cc2N[C@@H](C)CO)NC(=O)CC3)cc1C`, the activity change, negative = inhibition in experiment [2] was 4.82%; in experiment [4] it was -17.8%; in experiment [5] it was -21%.
`CC(C)CCN1C(=O)c2ccccc2CC1(C)C(=O)NC1CCC(C)CC1` (stereo not drawn): the activity change, negative = inhibition in experiment [1] was -5.07%; in experiment [2], 0%; in experiment [3], 11.7%; in experiment [4], 6.74%; in experiment [5], 0.875%.
For the compound `CC(C)OCCCn1c(=O)c2ccccc2n2c(CCC(=O)NCc3ccc(Cl)cc3)nnc12`, the activity change, negative = inhibition in experiment [1] was -7.84%; in experiment [2], -2.88%; in experiment [3], -0.235%; in experiment [4], -9.19%; in experiment [5] it was -6.96%.
In the same order, the values of `CCCn1c(=O)c2ccc(C(=O)NCC(C)C)cc2n2c(=O)n(CC(=O)Nc3ccc(C)cc3C)nc12` are 6.2%, 0%, 6.95%, -1.2% and 5.45%.
For `COCCOCC1(CNC(=O)C2CCOCC2)C[C@@H](O)[C@@H](O)C1` (stereo partly drawn) the same measures were -1.33%, -1.63%, 0.38%, -5.99% and -14.6%.
For `O=C(O)Cc1cn([C@@H]2O[C@H](CO)[C@@H](O)[C@H](O)[C@H]2O[C@@H]2O[C@H](CO)[C@@H](O)[C@H](O)[C@H]2O)c2ccccc12` the same measures were 0%, 5.54%, 10.2%, -6.46% and 0.196%.
Consider `CC1=CC[C@@]2(C)CC[C@@](O)(C(C)C)[C@@H]2[C@@H](O)C1`, for which the activity change, negative = inhibition is 0% in experiment [1]; 3.88% in experiment [2]; 6.46% in experiment [3]; -13% in experiment [4]; 3.78% in experiment [5].
Regarding `COC(=O)CCC(=O)OC[C@]1(C)CCC[C@@]2(C)C3CC[C@]4(C)C=CC3(CCC12)C4` (stereo partly drawn), the activity change, negative = inhibition was -1.67% in experiment [1]; -16.3% in experiment [2]; -8.62% in experiment [3]; -18.5% in experiment [4]; -8.75% in experiment [5].
For `CC(C)c1cc2n(n1)CC(C)(C(=O)NC1CCCCC1)N(Cc1ccccc1)C2=O` (stereo not drawn) the same measures were 1.1%, 4.89%, 0.437%, 4.7% and 0.177%.
`CCC(C)NC(=O)Cn1ccc2cc(S(=O)(=O)N3CCCCC3)ccc21` (stereo not drawn): the activity change, negative = inhibition in experiment [1] is 7.2%; in experiment [2], 0%; in experiment [3], 7.37%; in experiment [4] it was 5.12%; in experiment [5], 3.68%.
For the compound `CC(C)Cn1c(=O)c2cc(F)ccc2n2c(SCC(=O)Nc3ccccc3F)nnc12`, the activity change, negative = inhibition in experiment [1] is -9.8%; in experiment [2], 5.54%; in experiment [3], 6.86%; in experiment [4], -14.7%; in experiment [5], 1.54%.
On to `CC(C)CNC1(Cc2cc(CN3CCOCC3)on2)COC1`, for which the activity change, negative = inhibition is -0.091% in experiment [1]; 0.844% in experiment [2]; 3.14% in experiment [3]; -2.26% in experiment [4]; 1.22% in experiment [5].
On to `COc1ccc(CN2C(=O)c3nc4ccccc4n3CC2(C)C(=O)NC2CCCC2)cc1` (stereo not drawn), for which the activity change, negative = inhibition in experiment [1] is 2.04%; in experiment [2] it was 4.71%; in experiment [3], 4.3%; in experiment [4], 3.02%; in experiment [5] it was 1.82%.
In the case of `COc1ccc(C)cc1NS(=O)(=O)c1cc2c(cc1C)n(C)c(=O)n2C`, the activity change, negative = inhibition in experiment [1] came out at 1.64%; in experiment [2] it was 5.95%; in experiment [3] it was 2.84%; in experiment [4] it was 8.61%; in experiment [5], 3.02%.
For `CCOC(=O)c1cc2n(n1)CC(C)(C(=O)NCc1ccc(C)cc1)N(c1ccc(OC)cc1)C2=O` (stereo not drawn) the same measures were 5.44%, 0%, 8.78%, 1.57% and 4.18%.
In the same order, the values of `Cc1cccc(N2CCN(C(=O)CCc3nnc4n(CCc5ccccc5)c(=O)c5ccccc5n34)CC2C)c1` (stereo not drawn) are -7.83%, 1.24%, -5.82%, -12.2% and -7.4%.
In the case of `CC(C)c1nc(CNC(=O)c2ccc(N(C)Cc3ccccn3)nc2)no1`, the activity change, negative = inhibition is -0.347% in experiment [1]; -3.45% in experiment [2]; -7.83% in experiment [3]; -5.3% in experiment [4]; 0.063% in experiment [5].
On to `CC(=O)Nc1ccc(C2(C(=O)NCc3ccc(F)cc3)CCC2)cc1`, for which the activity change, negative = inhibition was -1.8% in experiment [1]; 1.55% in experiment [2]; 3.06% in experiment [3]; 1.73% in experiment [4]; -9.12% in experiment [5].
